Structures can show the parent of a compound that is named as a salt. ± gives the standard deviation of the averaged measurements. Over roughly 2,600 compounds, “total cell number (DAPI+ nuclei) relative to DMSO vehicle control” has its median near -1.4; the lowest 2% begin near -23. Some of the results follow.
Tested on: jimpy (Plp1 jimpy) mouse iPSC-derived oligodendrocyte progenitor cells
Assay: total cell number (DAPI+ nuclei) relative to DMSO vehicle control (SDs above negative control mean); higher = more surviving cells
Conditions: 10 µM; 3 days

SMILES | total cell number
CC(C)(CO)Cc1cc(C(C)(C)C)c(O)c(C(C)(C)C)c1 | 1.01
CCCCCCCCCCCCCCSCC(=O)O [Tetradecylthioacetic acid] | -0.695
CN1CCC(NC(=O)c2cc(-c3c(O)cc(O)cc3Oc3ccc([N+](=O)[O-])cc3)on2)CC1 | -15.7
CC(C)NC[C@H](O)COc1cccc2[nH]ccc12 [S(-)-Pindolol] | -2.38
Cc1cnc(C(=O)NCCc2ccc(S(=O)(=O)NC(=O)NC3CCCCC3)cc2)cn1 [Glipizide] | -0.732 ± 0.42
Cc1cc(-c2ncc(CC(=O)Nc3ccc(-c4cnccn4)cn3)cc2C)ccn1 | 1.55
O=C1[C@H](CC[C@H](O)c2ccc(F)cc2)[C@@H](c2ccc(O)cc2)N1c1ccc(F)cc1 [Ezetimibe] | -1.4
COc1ccccc1N1CCN(CCCCNC(=O)c2ccc3ccccc3c2)CC1 | -5.13
CCN(CC)CCOc1ccc(C(=C(Cl)c2ccccc2)c2ccccc2)cc1 [Clomifene citrate] | -13.2
CCCCCOC(=O)Nc1nc(=O)n([C@@H]2O[C@H](C)[C@@H](O)[C@H]2O)cc1F [Capecitabine] | -1.2 ± 0.52
COc1ccc2c(c1)CC[C@@H]1[C@@H]2CC[C@]2(C)[C@@H](NCCCCCCN3C(=O)CCC3=O)CC[C@@H]12 | -2.42
COc1ccc(NC(=O)c2ccc(-c3ccc(-c4noc(C)n4)cc3C)cc2)cc1N1CCN(C)CC1 | -11.4
CCCCNc1ccc(C(=O)OCCN(C)C)cc1 [Tetracaine HCl] | 0.452
CCCCNc1ccc(C(=O)OCCN(C)C)cc1 [Tetracaine hydrochloride] | -1.02
N=C(N)NCCCCN [Agmatine sulfate] | -1.01
CN1CCOC(c2ccccc2)c2ccccc2C1 (configuration not stated) [Nefopam HCl] | -1.99
C[C@H](CSC(=O)c1ccccc1)C(=O)N1C[C@@H](Sc2ccccc2)C[C@H]1C(=O)O [Zofenopril calcium] | -2.18
COc1ncc(-c2ccc3nccc(-c4ccnnc4)c3c2)cc1NS(=O)(=O)c1ccc(F)cc1F | -12
CN1CCC(=C2c3ccccc3CCc3sccc32)CC1 [Pizotifen Malate] | -9.56
CNCc1cc(-c2ccccc2F)n(S(=O)(=O)c2cccnc2)c1 | -1.01
Cc1ccccc1C(OCCN(C)C)c1ccccc1 (configuration not stated) [Orphenadrine hydrochloride] | -0.816
Cc1ccccc1C(OCCN(C)C)c1ccccc1 (configuration not stated) [Orphenadrine Citrate] | -3.22
O=C1C(O)=C([C@H]2CC[C@H](c3ccc(Cl)cc3)CC2)C(=O)c2ccccc21 [Atovaquone] | -0.0933
CC(C)NCC(O)c1ccc(O)c(O)c1 (single isomer, unassigned; (-)) [(-)-Isoproterenol hydrochloride] | -0.816
NCCNS(=O)(=O)c1cccc2c(Cl)cccc12 [A3 hydrochloride] | -3.79
O=C1CCc2ccc(OCCCCN3CCN(c4cccc(Cl)c4Cl)CC3)cc2N1 [Aripiprazole] | -3.83

SMILES | total cell number
COc1c2ccoc2cc2oc(=O)ccc12 [Bergapten] | -0.221
CCCCCCCCCCCC1=C(O)C(=O)C=C(O)C1=O [Embelin] | 1
COC(=O)C1=C(C)NC(C)=C(C(=O)OCC(C)C)C1c1ccccc1[N+](=O)[O-] (configuration not stated) [Nisoldipine] | -16.3
COc1ccc2cc(OCC3(C(=O)O)CN(C(=O)c4ccc(F)cc4)C3)ccc2c1 | -1.3
Oc1cc(O)c(Cl)cn1 [Gimeracil] | 0.777
CC1(C)CNc2cc(NC(=O)c3cccnc3NCc3ccncc3)ccc21 [Motesanib Diphosphate (AMG-706)] | -8.1
OC[C@H]1O[C@@H](c2ccc(Cl)c(Cc3ccc(O[C@H]4CCOC4)cc3)c2)[C@H](O)[C@@H](O)[C@@H]1O | -1.9
COC(=O)C1=C(C)NC(C)=C(C(=O)OCCN(C)Cc2ccccc2)C1c1cccc([N+](=O)[O-])c1 (configuration not stated) [Nicardipine hydrochloride] | -2.62
COC(=O)C1=C(C)NC(C)=C(C(=O)OCCN(C)Cc2ccccc2)C1c1cccc([N+](=O)[O-])c1 (configuration not stated) [Nicardipine HCl] | 0.1
Cc1nc(C#Cc2ccnc(Cl)c2)c(C)n1-c1ccc(OC(F)(F)F)cc1 | -5.16
Cc1cc(Nc2cc(N3CCN(C)CC3)nc(/C=C/c3ccccc3)n2)n[nH]1 | -26.3
COCCOc1ccc2c(c1)ncn2-c1ccc2cccc(N3CCC(N)CC3)c2n1 | -16.8
Cc1cc(-c2ccc(CC(=O)Nc3ccc(-c4cccnc4)cc3)cc2)ccn1 | 6.95
CC(C)[C@H](N)C(=O)OCC(CO)OCn1cnc2c(=O)[nH]c(N)nc21 (some centres not stated) [Valganciclovir HCl] | -0.189
CC(C)[C@H](N)C(=O)OCC(CO)OCn1cnc2c(=O)[nH]c(N)nc21 (some centres not stated) [Valganciclovir hydrochloride hydrate] | -1.15
O=C(c1ccc(OCCCc2c[nH]cn2)cc1)C1CC1 [Ciproxifan hydrochloride] | -2.01
O=C(c1ccc(OCCCc2c[nH]cn2)cc1)C1CC1 [Ciproxifan] | -1.05
CCOc1ccc(NC(C)=O)cc1 [Phenacetin] | -0.749
CN1CCC[C@@H]1CCO[C@](C)(c1ccccc1)c1ccc(Cl)cc1 [Clemastine fumarate] | -8.02
CN1CCC[C@@H]1CCO[C@](C)(c1ccccc1)c1ccc(Cl)cc1 [Clemastine Fumarate] | -12.8
COc1cc2ncnc(Nc3ccc(F)c(Cl)c3)c2cc1OCCCN1CCOCC1 [Gefitinib (ZD1839)] | -20.6
CN1CCN(c2nc(C3=C(c4c[nH]c5ccccc45)C(=O)NC3=O)c3ccccc3n2)CC1 [Sotrastaurin] | -3.84
CC(C(=O)O)c1ccc(C(=O)c2cccs2)cc1 (configuration not stated) [Suprofen] | -1.04
O=C(O)c1cccnc1C(=O)O [Quinolinic acid] | -1.04
COC(=O)[C@]12CCC(C)(C)C[C@H]1[C@H]1C(=O)C=C3[C@@]4(C)C=C(C#N)C(=O)C(C)(C)[C@@H]4CC[C@@]3(C)[C@]1(C)CC2 [Bardoxolone Methyl] | -16.7
CCCCC[C@H](O)/C=C/[C@H]1[C@H](O)CC(=O)[C@@H]1CCCCCCC(=O)O [Alprostadil] | -1.79
